Results: patent US12383631 (BRIGHT PEAK THERAPEUTICS, dated 2025)

T1: IL-18 receptor (IL-18Rα/IL-18Rβ) on cells (HEK-Blue IL18R reporter cells, NK-92, KG-1) (human, UniProt Q13478 19-541; O95256 20-599)
T1 sequence (looked up) 1: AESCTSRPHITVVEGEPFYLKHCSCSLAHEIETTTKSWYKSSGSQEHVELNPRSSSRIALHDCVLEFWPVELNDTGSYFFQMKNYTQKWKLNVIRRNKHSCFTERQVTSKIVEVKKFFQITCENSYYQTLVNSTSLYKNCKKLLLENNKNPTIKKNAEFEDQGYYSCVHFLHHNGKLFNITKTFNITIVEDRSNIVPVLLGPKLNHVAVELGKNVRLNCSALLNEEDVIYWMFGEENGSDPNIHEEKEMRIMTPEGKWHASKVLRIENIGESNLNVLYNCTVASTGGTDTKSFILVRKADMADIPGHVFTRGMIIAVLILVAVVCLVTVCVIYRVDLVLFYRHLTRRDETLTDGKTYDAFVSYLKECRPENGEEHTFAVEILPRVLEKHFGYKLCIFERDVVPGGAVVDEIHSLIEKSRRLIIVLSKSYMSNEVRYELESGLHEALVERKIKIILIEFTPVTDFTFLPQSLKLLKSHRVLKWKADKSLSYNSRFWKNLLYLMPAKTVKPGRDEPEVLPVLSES
T1 sequence (looked up) 2: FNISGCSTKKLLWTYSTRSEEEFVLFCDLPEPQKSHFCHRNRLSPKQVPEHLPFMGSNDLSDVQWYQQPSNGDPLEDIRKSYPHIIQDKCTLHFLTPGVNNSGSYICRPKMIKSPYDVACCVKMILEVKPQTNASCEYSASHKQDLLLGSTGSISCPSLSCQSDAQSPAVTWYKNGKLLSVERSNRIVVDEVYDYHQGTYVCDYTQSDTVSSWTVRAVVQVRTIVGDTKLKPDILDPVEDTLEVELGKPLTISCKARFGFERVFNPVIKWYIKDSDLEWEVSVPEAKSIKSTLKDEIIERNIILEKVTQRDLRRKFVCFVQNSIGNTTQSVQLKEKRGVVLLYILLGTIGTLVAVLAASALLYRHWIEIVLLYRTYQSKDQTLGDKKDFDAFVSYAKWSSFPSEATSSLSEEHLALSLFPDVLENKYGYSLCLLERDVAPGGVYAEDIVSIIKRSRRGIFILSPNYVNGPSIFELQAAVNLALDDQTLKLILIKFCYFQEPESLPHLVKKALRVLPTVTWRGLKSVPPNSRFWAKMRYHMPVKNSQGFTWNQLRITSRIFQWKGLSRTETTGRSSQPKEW

T2: human IL-18BP-His (human, UniProt O95998 31-194, limits assumed)
T2 construct: also called His-tagged human IL-18BP; not shown: His tag
T2 sequence (looked up): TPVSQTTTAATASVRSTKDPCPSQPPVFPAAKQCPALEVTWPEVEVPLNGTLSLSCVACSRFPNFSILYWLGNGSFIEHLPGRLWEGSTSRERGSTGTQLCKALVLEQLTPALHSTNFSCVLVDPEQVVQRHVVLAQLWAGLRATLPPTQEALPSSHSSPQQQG

B1: IL-18 polypeptide of SEQ ID NO: 51 (T63A) (ligand)
chain: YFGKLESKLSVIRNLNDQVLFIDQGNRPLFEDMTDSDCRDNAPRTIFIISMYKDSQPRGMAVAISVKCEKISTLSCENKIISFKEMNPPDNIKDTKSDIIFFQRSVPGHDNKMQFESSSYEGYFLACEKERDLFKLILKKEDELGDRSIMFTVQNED
B2: IL-18 polypeptide of SEQ ID NO: 36 (K53A) (ligand)
chain: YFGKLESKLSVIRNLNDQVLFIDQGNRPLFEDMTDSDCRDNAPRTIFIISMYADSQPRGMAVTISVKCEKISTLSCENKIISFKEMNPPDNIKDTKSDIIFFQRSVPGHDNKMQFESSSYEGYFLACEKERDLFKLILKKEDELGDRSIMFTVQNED
B3: IL-18 polypeptide of SEQ ID NO: 38 (E06K) (ligand)
chain: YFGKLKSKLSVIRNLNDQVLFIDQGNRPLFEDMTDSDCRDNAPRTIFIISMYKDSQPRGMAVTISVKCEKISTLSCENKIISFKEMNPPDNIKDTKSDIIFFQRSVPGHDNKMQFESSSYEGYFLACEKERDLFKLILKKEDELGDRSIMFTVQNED
B4: IL-18 polypeptide of SEQ ID NO: 41 (K53A, S55A) (ligand)
chain: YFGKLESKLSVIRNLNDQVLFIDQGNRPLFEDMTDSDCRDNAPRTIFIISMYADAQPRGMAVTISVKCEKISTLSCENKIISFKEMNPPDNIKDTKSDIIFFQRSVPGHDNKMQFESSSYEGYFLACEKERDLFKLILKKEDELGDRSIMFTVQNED
B5: IL-18 polypeptide of SEQ ID NO: 39 (E06K, K53A) (ligand)
chain: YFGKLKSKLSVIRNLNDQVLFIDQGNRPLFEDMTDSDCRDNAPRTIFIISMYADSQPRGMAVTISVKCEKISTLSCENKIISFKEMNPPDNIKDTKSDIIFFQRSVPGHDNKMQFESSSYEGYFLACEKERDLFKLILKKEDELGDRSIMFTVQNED
B6: IL-18 polypeptide of SEQ ID NO: 40 (E06K, S55A) (ligand)
chain: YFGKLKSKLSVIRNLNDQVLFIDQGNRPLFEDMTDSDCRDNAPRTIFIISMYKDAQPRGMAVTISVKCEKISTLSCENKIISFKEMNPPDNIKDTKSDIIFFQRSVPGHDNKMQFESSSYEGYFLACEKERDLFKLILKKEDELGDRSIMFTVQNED
B7: IL-18 polypeptide of SEQ ID NO: 53 (K53A, T63A) (ligand)
chain: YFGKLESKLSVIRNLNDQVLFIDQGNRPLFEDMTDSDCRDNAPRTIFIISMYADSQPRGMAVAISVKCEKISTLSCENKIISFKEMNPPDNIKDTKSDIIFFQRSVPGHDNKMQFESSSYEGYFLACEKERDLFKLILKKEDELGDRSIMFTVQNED
B8: IL-18 polypeptide of SEQ ID NO: 52 (E06K, T63A) (ligand)
chain: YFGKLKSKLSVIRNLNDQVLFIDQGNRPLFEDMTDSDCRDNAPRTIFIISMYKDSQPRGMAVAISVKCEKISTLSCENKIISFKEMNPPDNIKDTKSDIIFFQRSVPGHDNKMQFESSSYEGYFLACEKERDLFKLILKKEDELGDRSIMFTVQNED
B9: IL-18 polypeptide of SEQ ID NO: 37 (S55A) (ligand)
chain: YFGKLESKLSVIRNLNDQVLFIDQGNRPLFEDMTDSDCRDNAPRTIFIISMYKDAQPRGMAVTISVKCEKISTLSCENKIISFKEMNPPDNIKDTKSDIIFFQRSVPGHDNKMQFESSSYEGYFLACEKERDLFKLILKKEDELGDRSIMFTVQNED
B10: IL-18 polypeptide of SEQ ID NO: 31 (C38A, C76A, C127A) (ligand)
chain: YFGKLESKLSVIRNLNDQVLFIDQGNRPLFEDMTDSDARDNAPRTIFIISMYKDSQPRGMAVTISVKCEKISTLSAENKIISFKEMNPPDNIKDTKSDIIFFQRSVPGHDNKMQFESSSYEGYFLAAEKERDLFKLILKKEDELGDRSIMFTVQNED
B11: Composition D (LZM-009 conjugated to IL-18 polypeptide of SEQ ID NO: 31) (other)
VH: QVQLVQSGAEVKKPGASVKVSCKASGYTFTSYYMYWVRQAPGQGLEWMGGVNPSNGGTNFNEKFKSRVTITADKSTSTAYMELSSLRSEDTAVYYCARRDYRYDMGFDYWGQGTTVTVSS
VL: EIVLTQSPATLSLSPGERATISCRASKGVSTSGYSYLHWYQQKPGQAPRLLIYLASYLESGVPARFSGSGSGTDFTLTISSLEPEDFATYYCQHSRELPLTFGTGTKVEIK
chain: [about 150 residues not printed]
modifications: chemical linker to the antibody; site not stated; chemical linker to IL-18; site not stated

These binders were tested against T1, IL-18 receptor (IL-18Rα/IL-18Rβ) on … (assay: cell-based or functional assay).

Row | EC50, IFNγ stimulation, NK92 cells [nM] | Binder
1 | 0.449 | B1
2 | 0.444 | B2
3 | 0.0567 | B3
4 | 1.58 | B4
5 | 0.0192 | B5
6 | 0.067 | B6
7 | 0.155 | B7
8 | 0.011 | B8
9 | 0.108 | B9

Each binder was assayed against T2, human IL-18BP-His (assay: AlphaLISA of free IL-18BP after incubation with IL-18BP-His).
Protocol: Under subdued light, 12.5 µl of pre-mixed Donor beads were added, followed by a short centrifugation step at 150 g, and incubated for 30 minutes at 20° C. under shaking at 750 rpm with no light. AlphaLisa signal was then measured on an Enspire plate reader (Perkin Elmer) using 680 and 615 nm as excitation and emission wavelengths respectively.

Row | Kd [nM] | Binder
10 | 0.103 | B10

Molecular target: T1, IL-18 receptor (IL-18Rα/IL-18Rβ) on …
Experiment: cell-based or functional assay
Remark: another data set of the same source

Row | EC50, HEK-Blue IL18R reporter cells [nM] | Binder
11 | 0.00072 | B5

What follows are binders tested against T2, human IL-18BP-His (assay: AlphaLISA of free IL-18BP).
Protocol: The plate is incubated further for 1 hr at room temperature. Under subdued light, 12.5 µL of 2× streptavidin (SA) donor beads are pipetted into each well, and the wells are incubated with shaking for an additional 30 min at room temperature. The AlphaLisa signal is then measured on an Enspire plate reader with 680 and 615 nm as excitation and emission wavelengths, respectively. The dissociation constant (K_D) is calculated based on a variable slope, four parameter analysis using GraphPad PRISM software.

Row | Kd [nM] | Binder
12 | 2.59 | B1
13 | 514 | B2
14 | 0.13 | B3
15 | 500 | B4
16 | 130 | B5
17 | 12.3 | B6
18 | 198 | B7
19 | 0.83 | B8
20 | 10.7 | B9

Molecular target: T1, IL-18 receptor (IL-18Rα/IL-18Rβ) on …
Experiment: cell-based or functional assay
Remark: another data set of the same source

Row | EC50, IFNγ secretion, NK92 cells [nM] | Binder
21 | 0.471 | B11
22 | 0.103 | B10

Molecular target: T1, IL-18 receptor (IL-18Rα/IL-18Rβ) on …
Experiment: cell-based or functional assay
Remark: another data set of the same source

Row | EC50, IFNγ secretion, PD-1 positive KG-1 cells [nM] | EC50, IFNγ secretion, parental KG-1 cells [nM] | Binder
23 | 0.0225 | 0.203 | B11
24 | 0.135 | 0.148 | B10
